# Some of the results follow.
# How the values were obtained:
# Test in all cases: glycan array binding signal (z-score within array); higher = stronger binding
# Conditions in all cases: glycan notation: IUPAC condensed, linker removed
# [1] = target: Gal(b1-4)GlcNAc(b1-2)Man(a1-3)[Gal(b1-4)GlcNAc(b1-2)Man(a1-6)][Gal(b1-4)GlcNAc(b1-4)]Man(b1-4)GlcNAc(b1-4)[Fuc(a1-6)]GlcNAc
# How it was run: (§1)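 Glycan array binding is given as a within-array Z-score, which can be read as non-binding when negative. The arrays, 3228 of them, came from the Consortium for Functional Glycomics database and were retained only where the protein sequence was available. Z-scores were averaged across arrays of the same protein sequence at different concentrations or buffers and across linkers.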
# [2] = target: Gal(b1-4)GlcNAc(b1-2)Man(a1-3)[Gal(b1-4)GlcNAc(b1-2)Man(a1-6)][GlcNAc(b1-4)]Man(b1-4)GlcNAc(b1-4)[Fuc(a1-6)]GlcNAc
# How it was run: as §1
# [3] = target: Gal(b1-4)GlcNAc(b1-2)Man(a1-3)[GlcNAc(b1-2)Man(a1-6)]Man(b1-4)GlcNAc(b1-4)GlcNAc
# How it was run: as §1
# [4] = target: Gal(b1-4)GlcNAc(b1-2)Man(a1-3)[GlcNAc(b1-4)][Gal(b1-4)GlcNAc(b1-2)Man(a1-6)]Man(b1-4)GlcNAc(b1-4)GlcNAc
# How it was run: as §1
# [5] = target: Gal(b1-4)GlcNAc(b1-2)Man(a1-3)[Man(a1-6)]Man(b1-4)GlcNAc(b1-4)GlcNAc
# How it was run: as §1
# [6] = target: Gal(b1-4)GlcNAc(b1-2)Man(a1-6)Man(b1-4)GlcNAc(b1-4)GlcNAc
# How it was run: as §1
# [7] = target: Gal(b1-4)GlcNAc(b1-2)Man(a1-6)[GlcNAc(b1-2)Man(a1-3)]Man(b1-4)GlcNAc(b1-4)GlcNAc
# How it was run: as §1
# [8] = target: Gal(b1-4)GlcNAc(b1-2)Man(a1-6)[Man(a1-3)]Man(b1-4)GlcNAc(b1-4)GlcNAc
# How it was run: as §1
# [9] = target: Gal(b1-4)GlcNAc(b1-2)[Gal(b1-4)GlcNAc(b1-4)]Man(a1-3)[Gal(b1-4)GlcNAc(b1-2)Man(a1-6)]Man(b1-4)GlcNAc(b1-4)GlcNAc
# How it was run: as §1
# [10] = target: Gal(b1-4)GlcNAc(b1-2)[Gal(b1-4)GlcNAc(b1-4)]Man(a1-3)[Gal(b1-4)GlcNAc(b1-2)[Gal(b1-4)GlcNAc(b1-6)]Man(a1-6)]Man(b1-4)GlcNAc(b1-4)GlcNAc
# How it was run: as §1
# [11] = target: Gal(b1-4)GlcNAc(b1-2)[Gal(b1-4)GlcNAc(b1-4)]Man(a1-3)[GlcNAc(b1-4)][Gal(b1-4)GlcNAc(b1-2)Man(a1-6)]Man(b1-4)GlcNAc(b1-4)GlcNAc
# How it was run: as §1
# [12] = target: Gal(b1-4)GlcNAc(b1-2)[Gal(b1-4)GlcNAc(b1-4)]Man(a1-3)[GlcNAc(b1-4)][Gal(b1-4)GlcNAc(b1-2)[Gal(b1-4)GlcNAc(b1-6)]Man(a1-6)]Man(b1-4)GlcNAc(b1-4)GlcNAc
# How it was run: as §1
# [13] = target: Gal(b1-4)GlcNAc(b1-2)[Gal(b1-4)GlcNAc(b1-6)]Man(a1-6)[Gal(b1-4)GlcNAc(b1-2)Man(a1-3)]Man(b1-4)GlcNAc(b1-4)GlcNAc
# How it was run: as §1
# [14] = target: Gal(b1-4)GlcNAc(b1-2)[Gal(b1-4)GlcNAc(b1-6)]Man(a1-6)[Gal(b1-4)GlcNAc(b1-2)Man(a1-3)]Man(b1-4)GlcNAc(b1-4)[Fuc(a1-6)]GlcNAc
# How it was run: as §1
# [15] = target: Gal(b1-4)GlcNAc(b1-2)[Gal(b1-4)GlcNAc(b1-6)]Man(a1-6)[GlcNAc(b1-4)][Gal(b1-4)GlcNAc(b1-2)Man(a1-3)]Man(b1-4)GlcNAc(b1-4)GlcNAc
# How it was run: as §1
# [16] = target: Gal(b1-4)GlcNAc(b1-2)[Gal(b1-4)GlcNAc(b1-6)]Man(a1-6)[GlcNAc(b1-4)][Gal(b1-4)GlcNAc(b1-2)[Gal(b1-4)GlcNAc(b1-4)]Man(a1-3)]Man(b1-4)GlcNAc(b1-4)[Fuc(a1-6)]GlcNAc
# How it was run: as §1
# [17] = target: Gal(b1-4)GlcNAc(b1-3)Gal(b1-3)GalNAc
# How it was run: as §1
# [18] = target: Gal(b1-4)GlcNAc(b1-3)Gal(b1-3)GlcNAc
# How it was run: as §1
# [19] = target: Gal(b1-4)GlcNAc(b1-3)Gal(b1-4)Glc
# How it was run: as §1
# [20] = target: Gal(b1-4)GlcNAc(b1-3)Gal(b1-4)GlcNAc
# How it was run: as §1
# [21] = target: Gal(b1-4)GlcNAc(b1-3)Gal(b1-4)GlcNAc(b1-2)Man(a1-3)[Gal(b1-4)GlcNAc(b1-3)Gal(b1-4)GlcNAc(b1-2)Man(a1-6)]Man(b1-4)GlcNAc(b1-4)GlcNAc
# How it was run: as §1
# [22] = target: Gal(b1-4)GlcNAc(b1-3)Gal(b1-4)GlcNAc(b1-2)Man(a1-3)[Gal(b1-4)GlcNAc(b1-3)Gal(b1-4)GlcNAc(b1-2)Man(a1-6)]Man(b1-4)GlcNAc(b1-4)[Fuc(a1-6)]GlcNAc
# How it was run: as §1
binder,measurement,setting,value
"AAA (Anguilla anguilla), Q7SIC1 (protein) VIPEGYTQENVAVRGKATQSAQLRGEHAANSEASNAIDGNRDSNFYHGSCTHSSGQANPWWRVDLLQVYTITSVTITNRGDCCGERISGAEINIGQHLASNGVNNPECSVIGSMATGETKTFHCPAPMIGRYVVTYLPTSESLHLCEVEVNVDKPAAA",glycan array binding signal (z-score),[1],-0.155
same,glycan array binding signal (z-score),[2],-0.269
same,glycan array binding signal (z-score),[3],-0.086
same,glycan array binding signal (z-score),[4],-0.238
same,glycan array binding signal (z-score),[5],-0.137
same,glycan array binding signal (z-score),[6],-0.168
same,glycan array binding signal (z-score),[7],-0.24
same,glycan array binding signal (z-score),[8],-0.182
same,glycan array binding signal (z-score),[9],-0.16
same,glycan array binding signal (z-score),[10],-0.191
same,glycan array binding signal (z-score),[11],-0.275
same,glycan array binding signal (z-score),[12],-0.276
same,glycan array binding signal (z-score),[13],-0.402
same,glycan array binding signal (z-score),[14],-0.181
same,glycan array binding signal (z-score),[15],-0.252
same,glycan array binding signal (z-score),[16],-0.257
same,glycan array binding signal (z-score),[17],-0.111
same,glycan array binding signal (z-score),[18],0.13
same,glycan array binding signal (z-score),[19],-0.16
same,glycan array binding signal (z-score),[20],-0.248
same,glycan array binding signal (z-score),[21],0.804
same,glycan array binding signal (z-score),[22],0.17
